Reference: publication PMC12040169 (PLOS Biology, 2025)
The list shows a part of the results.

test system: T1, C. trachomatis L2/434/Bu expressing GFP (CTL2-GFP); parameters: species or system HeLa; C. trachomatis total inclusion area by high-content imaging, normalised to DMSO; conditions: total inclusion area; 28.5 h, 10 µM; inhibitor
T1 construct: L2/434/Bu GFP intracellular growth in HeLa cells
In short: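 Host cell viability was gauged from Hoechst-stained nuclei counts, while chlamydial growth was taken from total inclusion area and inclusion number per well. Cells were fixed and imaged by high-content microscopy once bulk GFP and resorufin fluorescence had been measured.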

Row | Compound | % of control remaining
1 | Cc1ccc(CNC(=O)OCc2cccnc2C)o1 [CBK200131] | 44.3351
2 | Cc1cc(Cl)ccc1NC(=S)NCCc1ccc(S(N)(=O)=O)cc1 [CBK264888] | 100.532
3 | O=S(=O)(Nc1cc(NC2CCNC2)c2occc2c1)c1ccccc1 (centres unmarked) [CBK066943C] | 72.9808
4 | CC(C)(O)C#Cc1ccc(C(=O)N2CCN(Cc3ccccc3)CC2)cc1 [CBK263100] | 91.3255
5 | C/C(=N\N=C1\N=C(O)C(CC(=O)NCc2ccccc2)S1)c1ccco1 (centres unmarked) [CBK263698] | 94.9993
6 | CCOc1ccsc1C(=O)N1CCN(CC)CC1 [CBK200250] | 109.876
7 | COc1cc(/C=N/c2ccc3oc(-c4cccc(I)c4)nc3c2)ccc1OC(=O)c1ccc(Cl)cc1Cl [CBK261239] | 99.0341
8 | Cc1nc2ccc(C(=O)NC(c3ccccc3)c3cccnc3)cc2[nH]1 (centres unmarked) [CBK283259] | 88.2007
9 | Cc1cccc(OCCn2cncc2-c2cn(C)nc2C)c1C [CBK281458] | 71.6699
10 | Cc1ccc(S(=O)(=O)CCOc2nc3c(C(F)(F)F)cc(C4CC4)nc3o2)cc1 [CBK269267] | 94.6735
11 | CCOc1ccc(-c2cnc(SCC(=O)O)nc2N)cc1 [CBK269928] | 91.2789
12 | O=C(CN1C(=O)S/C(=C\c2ccc(OCc3ccccc3)cc2)C1=O)c1ccccc1 [CBK264636] | 99.2566
13 | COc1ccc(C2(NCc3c(C)nc4sccn34)CC2)cc1 [CBK282835] | 78.9122
14 | OC(CN1CCN(Cc2ccc3c(c2)OCO3)CC1)c1ccccc1 (centres unmarked) [CBK074759] | 101.563
15 | CN1CCC(N(C)C2CCN(Cc3ccccc3)CC2)CC1 [CBK261925] | 64.9472
16 | COc1cccc(C(NC(=O)C2COc3c(cccc3OC)C2)c2ccccc2)c1 (centres unmarked) [CBK285736] | 105.693
17 | CCN(CC(=O)Nc1c(F)cccc1F)S(=O)(=O)c1cccc(C#N)c1 [CBK306197] | 43.1859
18 | O=C(CSc1nc(Nc2ccccc2)nc(N2CCOCC2)n1)Nc1ccc2c(c1)OCO2 [CBK268320] | 113.05
19 | CN(C)CCNc1nc(-c2cncnc2)cnc1N [CBK063661] | 103.174
20 | CC(C)(C)c1[nH]c2ncccc2c1CN1CCCC(CO)C1 (centres unmarked) [CBK285342] | 100.407
21 | CN(CC(=O)O/N=C(\N)c1cccnc1)S(=O)(=O)c1ccccc1 [CBK267684] | 105.443
22 | CC(C)NC(=O)c1cc([C@H]2CC[C@H](CNC(=O)Cn3cccn3)CC2)nc2ccccc12 [CBK285859] | 95.4105
23 | Cc1ccc(Cl)cc1NC(=O)c1cnc2scc(C)n2c1=O [CBK287464] | 51.1265
24 | COc1cc(-c2cc(N(C)CCN(C)C)n3nccc3n2)cc(OC)c1OC [CBK037181] | 82.1529
25 | CC(NC(=O)c1cccc2ccccc12)c1ccc2ccccc2c1 (centres unmarked) [CBK267646] | 105.871
26 | COC(=O)[C@@H]1Cc2ncn(Cc3ccc(OC)cc3)c2CN1C(=O)c1ccc(C#N)cc1 [CBK288982] | 98.3111
27 | CN(C)CCCNc1nc(-c2cccc(Cl)c2)nc2ccccc12 [CBK267284C] | 59.6639

Row | Compound | % of control remaining
28 | Nc1ncc(-c2ccncc2)nc1-c1cccc2c1oc1ccccc12 [CBK063889] | 185.033
29 | O=C(/C=C/c1cccnc1)Nc1ccccc1N1CCNCC1 [CBK034136T] | 79.2814
30 | Cc1cc(-c2ccc(=O)n(CCNC(=O)c3cccs3)n2)c(C)o1 [CBK284461] | 102.63
31 | O=C(NCCCC1CCOC1)c1[nH]nc2c1CCCCC2 (centres unmarked) [CBK283154] | 100.325
32 | CC(=O)NCc1cccc(-c2cc(C(=O)NCCc3cccc(OC(F)(F)F)c3)cnc2-c2ccc(Cl)cc2)c1 [CBK164414] | 77.2388
33 | Cc1ccc2[nH]nc(C(=O)NC(C)c3ccccn3)c2c1 (centres unmarked) [CBK281887] | 103.428
34 | CN(C)CCN(C)c1cncc(-c2ccc(F)cc2F)n1 [CBK065652] | 105.698
35 | O=C(O)c1ccc(COc2ccccc2/C=N/O)cc1 [CBK288481] | 64.1597
36 | O=C(Nc1nc2ccc(Br)cc2s1)C1CC2CCC1C2 (centres unmarked) [CBK026397] | 60.7285
37 | CCOC(=O)c1c(NS(=O)(=O)c2cc(Cl)sc2Cl)sc2c1CCCC2 [CBK050397] | 83.2229
38 | CSC1=Nc2cc(Cl)ccc2SCC1 [CBK019829] | 17.9946
39 | Cc1nc2cc(OCc3ccc(Cn4ccn(C(=O)CCC5CCCC5)c4=O)cc3)ccc2s1 [CBK106641] | 97.6223
40 | OCc1cccc(-c2nccnc2NCc2ccc(F)cc2)c1 [CBK037670] | 85.3868
41 | Cc1nc(-c2ccc(S(=O)(=O)NCC3CC3)s2)cs1 [CBK085873] | 78.0698
42 | Cc1cccc(C(=O)O)c1NC(=O)Cc1cccc2ccccc12 [CBK268361] | 91.7972
43 | O=c1c2cc(F)ccc2nc2n1CCN(Cc1ccccc1)CC2 [CBK285300] | 74.6773
44 | Cc1ccc(Oc2cc(C)c([N+](=O)[O-])cn2)c(Br)c1 [CBK002823] | 82.3126
45 | CCCn1nc(C)c(-c2cncn2CC(C)N2CCCCC2)c1C (centres unmarked) [CBK281802] | 84.3043
46 | CCCCOc1ccccc1C1CC(=O)Nc2c(-c3ccccc3F)csc21 (centres unmarked) [CBK294439] | 60.6439
47 | OCCN(CC#CCC(O)(c1ccccc1)c1ccccc1)CCO [CBK263623] | 104.199
48 | O=C(Nc1ccccc1-n1ccnc1)c1ncoc1-c1ccc(F)cc1 [CBK282417] | 114.285
49 | NC(=O)CN1CCCN(c2nccc(OCC3COc4ccccc4O3)n2)CC1 (centres unmarked) [CBK084041] | 72.5296
50 | CC(=O)c1[nH]c(C)c(C(=O)N(C)Cc2cc(-c3ccncc3)no2)c1C [CBK306681] | 33.5911
51 | CCOC(=O)c1csc(COc2ccccc2Cl)n1 [CBK057782] | 115.857
52 | CC(=O)N1CCC(C(=O)Nc2cnc(-c3ccc(F)cc3)c(-c3ccco3)n2)CC1 [CBK037038] | 156.649
53 | CCNc1nc(-c2cccc(/C=C/C(=O)O)c2)cn2ccnc12 [CBK066373] | 136.016
54 | O=C(O)CCSc1nccc(C(F)(F)F)n1 [CBK107864] | 89.8519

Row | Compound | % of control remaining
55 | COc1ccc(CCCC(=O)Nc2cc(N3CCNCC3)nc(SC)n2)cc1OC [CBK050261T] | 72.528
56 | CN1CCN(C(=O)c2nc(SCc3ccccc3)ncc2Cl)CC1 [CBK269003] | 75.7045
57 | COc1ccc(CC(=O)N2CCCC2c2nnc3ccccn23)cc1 (centres unmarked) [CBK304719] | 86.7135
58 | CC1=NN(c2ccc(S(N)(=O)=O)cc2)C(=O)/C1=C\c1ccc(-c2ccc(Cl)c([N+](=O)[O-])c2)o1 [CBK263612] | 98.6805
59 | CCCn1cc(CN2CC3C[C@@H](O)CN3C[C@@H]2C)c2ccccc21 (some centres unmarked) [CBK285466] | 66.1967
60 | Cc1ccccc1C(=O)NC(=S)NCCN1CCOCC1 [CBK288475] | 47.5076
61 | C[C@@H](Cn1nc2c(cc1=O)CCCC2)NC(=O)Cc1cccc(F)c1 [CBK284527] | 86.1815
62 | O=C(Oc1ccc(-c2cnc3ccccc3n2)cc1)c1ccc(S(=O)(=O)N2CCCCC2)cc1 [CBK267812] | 116.695
63 | O[C@@]1(c2ccccn2)CC[C@H]2CN(CC3CCCCC3)C[C@H]21 [CBK282996] | 107.139
64 | CCC(CC)C(=O)N1CCn2c(nnc2-c2cncc(Br)c2)C1 [CBK304409] | 70.3298
65 | CCCCNc1ncncc1-c1ccc(Br)cc1 [CBK005014C] | 55.1943
66 | O=C(c1nccs1)C1CCN(C(=O)c2cc(F)cc(F)c2)CC1 [CBK284200] | 78.4455
67 | O=C1NC(CCSC2=NCN=N2)Oc2ccccc21 (centres unmarked) [CBK009148] | 39.5338
68 | NC(=O)C1CCCN(S(=O)(=O)c2ccc(S(N)(=O)=O)cc2)C1 (centres unmarked) [CBK266312] | 125.151
69 | O=C1CCC(=O)N1CCOc1nccnc1N1CCN(CCc2c[nH]c3ccccc23)CC1 [CBK084304] | 0.08272
70 | CCOC(=O)c1cnn2c(O)cc(CN(CC(C)(C)O)C(C)C)nc12 [CBK306133] | 66.1704
71 | CC(=O)Nc1c[nH]nc1C1CCCN(c2cccc(F)c2C#N)C1 (centres unmarked) [CBK306401] | 117.902
72 | CC[C@H](Cn1ncc2ccccc2c1=O)NC(=O)CC(C)C [CBK284305] | 44.2937
73 | COc1cccc(NC(=O)CC(CN2CCC(O)CC2)C(=O)O)c1 (centres unmarked) [CBK286842] | 111.602
74 | O=[N+]([O-])c1ccccc1CN1C[C@H](O)C[C@H]1c1nc(-c2ccncc2)no1 [CBK288839] | 104.006
75 | COc1ccc2c(c1)CC(=O)NC21CCN(C(=O)N[C@@H](C)c2ccccc2)CC1 [CBK047325] | 96.0049
76 | Cc1ccc(NC(=O)CCC(=O)N/N=C/c2ccco2)c(C)c1 [CBK263885] | 110.843
77 | CCNC(=O)Nc1cc2cccnc2c(-c2ccsc2)n1 [CBK081226] | 129.625
78 | COc1c(Br)cc(Br)cc1/C=C1/SC(=N)NC1=O [CBK119298] | 95.9466
79 | Cc1n[nH]c(O)c1C(c1ccc(OC(=O)c2ccc(F)cc2)cc1)c1c(C)n[nH]c1O [CBK264816] | 116.224
80 | CCc1nc(C(C)NC(=O)COc2nn(C)c3nc(C)cc(C)c23)cs1 (centres unmarked) [CBK306024] | 72.4029
